Data as given in PubChem BioAssay AID686979 (National Center for Advancing Translational Sciences (NCATS), 2013).
Several values for one entry are separate records, joined by “and”; a condition that tells them apart may be missing. Identical values can stand only once. Screen size: about 420,000 compounds; about 50,000 (12%) were called active. Inconclusive results, whose numbers are uncertain, are shown with a selection of clear calls. Calls follow the shape of the dose curve; as a rule, active = well fitted inhibition curve with a large enough effect; inconclusive = small, poorly fitted or top-dose-only effect; inactive = flat fitted curve, though single readings scatter. Potencies beside an inconclusive call are fits to weak or partial responses and may not hold up.

Experiment: qHTS for Inhibitors of human tyrosyl-DNA phosphodiesterase 1 (TDP1): qHTS in cells in presence of CPT; also: nearly all actives have a fitted effect of over 55% in size
Details: chicken DT40 Tdp1-/-;hTDP1 cells + 20 nM CPT, ATP luminescence, 48 h; activity change, negative = growth inhibition: at 46.2 µM (top of the series) unless noted
Outline: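 Chicken DT40 Tdp1-/- cells complemented with human TDP1, 400 cells/well, exposed to compounds plus 20 nM camptothecin for at least 48 h at 37 C; viability read as ATP content by CellTiter-Glo luminescence.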
% is scaled to controls: 0 for no effect and ±100 for the full control effect; potency is read from the fitted curve at half-maximal effect; tags tell the direction and shape of the fitted curve.

SMILES	Potency	activity change, negative = growth inhibition
C=CCN1C(=O)/C(=N/n2cnnc2)c2ccccc21	active: 5.8 µM	
O=C1CCCC2=C1C(c1ccc(Cl)cc1)N=C(Nc1nc3ccccc3o1)N2 (stereo unspecified)	inconclusive: 35.5 µM [inhibitor, single point]	
CCn1c(SCC(=O)NCc2ccc3c(c2)OCO3)nnc1-c1c[nH]c2ccccc12	inconclusive: 1.03 µM [inhibitor, single point]	
COc1ccc(CN2C(=O)C(CC(=O)NCc3cccc4ccccc34)CC(C(=O)N(C(C)C)C(C)C)=C2C)cc1 (stereo unspecified)	inconclusive: 25.9 µM [inhibitor, single point]	
CCOC(=O)c1csc(N)n1		inactive: 9.54%
Cc1cccc(NC(=O)CNC(=O)c2cccc(S(=O)(=O)NCc3cccs3)c2)c1C	inconclusive: 16.4 µM [inhibitor, single point]	
CC(=O)NC(c1ccccc1)c1nc(-c2ccc(C)c(C)c2)cs1 (stereo unspecified)	active: 16.4 µM	
COc1ccc(C(=O)O)cc1NC(=S)NC(=O)Cc1ccc(Cl)cc1		inactive: -0.534%
CC1(C)CC(NC(=O)c2cccc(F)c2)CC(C)(C)N1		inactive: 25.5%
COC(=O)[C@]1(Cc2ccccc2)N[C@H](c2ccc(-c3ccccc3)cc2)[C@@H]2C(=O)N(C)C(=O)[C@@H]21	inconclusive: 29.1 µM [inhibitor, single point]	
Cc1ccc(NC(=O)CNCCCN2CCOCC2)cc1S(=O)(=O)N1CCCCC1	inconclusive: 23.1 µM [inhibitor, single point]	
Cc1cc(C)cc(NC(=O)CCn2c(=O)c3cccn3c3ccccc32)c1	active: 5.8 µM	
CSc1ccccc1NC(=O)CN(C)C(C)C(=O)NC(=O)NC1CCCCC1 (stereo unspecified)	inconclusive: 25.9 µM [inhibitor, partial curve]	
O=C(CCC1CCN(C(=O)C2CC=CCC2)CC1)Nc1ccccc1 (stereo unspecified)	inconclusive: 29.1 µM [inhibitor, single point]	
Cn1c(=O)c2c(SCC(=O)Nc3ccccc3F)nc(C3CC3)nc2n(C)c1=O	inconclusive: 20.6 µM [inhibitor, single point]	
CN(C)c1ccc(/C=N/N=C2/NC(=O)/C(=C/c3ccc([N+](=O)[O-])cc3)S2)cc1	inconclusive: 20.6 µM [inhibitor, single point]	
CCCCn1c2c(c(=N)c3c1CCC3)CCC2	active: 6.51 µM	
C/C=C/c1cccc(-c2nc(C(=O)NC3Cc4ccccc4C3)cc3c2[C@@H](CCO)N(C(C)=O)C3)c1	active: 14.6 µM	
CCn1c(SC(C)C)nnc1-c1cc(-c2ccccc2)sc1N	inconclusive: 29.1 µM [inhibitor, single point]	
COc1ccc(Nc2cc(Nc3ccc(OC)cc3)ncn2)cc1		inactive: 4.8%
Cc1cccc(C2c3c(n(C)c(=O)n(C)c3=O)N=C3c4ccccc4C(=O)C32)c1 (stereo unspecified)	active: 8.2 µM	
CC(C(=O)NCCCn1ccnc1)(c1ccccc1)c1ccccc1	active: 14.6 µM	
O=C(Nc1ccccc1Cl)c1cc(C2CCCN(C(=O)c3cccc(O)c3)C2)on1 (stereo unspecified)		inconclusive: -33.5% [inhibitor]
COc1cc(OC)c(NC(=O)Cn2cnc3sc(C)c(S(=O)(=O)N4CCC(C)CC4)c3c2=O)cc1Cl	inconclusive: 29.1 µM [inhibitor, single point]	

SMILES	Potency	activity change, negative = growth inhibition
CC1(C(=O)NS(=O)(=O)c2cccs2)CCN1C(=O)Cc1ccc(Cl)cc1Cl (stereo unspecified)		inactive: -9.72%
CC1(C)Cc2nc3sc4c(SCC(=O)NCc5ccco5)ncnc4c3cc2CO1	active: 2.06 µM	
CCCCN(C(=O)CSc1n[nH]c(-c2ccc(C)cc2)n1)c1c(N)n(CCCC)c(=O)[nH]c1=O		inactive: -2.32%
O=C1CCCC2=C1C(c1ccc(Cl)cc1)n1c(s/c(=C\c3ccc4ccncc4c3)c1=O)=N2 (stereo unspecified)	inconclusive: 18.4 µM [inhibitor, single point]	
CCOC(=O)c1c(-c2ccc(C)s2)csc1NC(=O)c1cccs1		inconclusive: -33.2% [inhibitor]
Cc1ccc(NC(=O)CCn2c(=O)c3cccn3c3ccccc32)cc1Cl	active: 18.4 µM	
COc1cccc(C2CC(c3c(-c4ccccc4)c4cc(Cl)ccc4[nH]c3=O)=NN2S(C)(=O)=O)c1OC (stereo unspecified)	active: 20.6 µM	
Cc1cc(NC(=O)Nc2nnc(N3CCCCC3)s2)ccc1Br	inconclusive: 23.1 µM [inhibitor, single point]	
CN(C)C(=O)c1ccc(-c2cncnc2NCc2cccnc2)cc1		inactive: -5.31%
O=S(=O)(c1ccc(Br)cc1)N1CCCN(Cc2ccccc2F)CC1	inconclusive: 32.6 µM [inhibitor, single point]	
COc1ccc(OC)c(NC(=O)c2c3c(nc4ccccc24)CCC3)c1	inconclusive: 11.6 µM [inhibitor, partial curve]	
O=C(Nc1ccccc1)c1ccc(Nc2c([N+](=O)[O-])cc([N+](=O)[O-])c3ccccc23)cc1	active: 7.31 µM	
O=C(Nc1ccc([N+](=O)[O-])cc1)C1CC1(c1ccccc1)c1ccccc1 (stereo unspecified)	inconclusive: 29.1 µM [inhibitor, partial curve, poor fit]	
Cc1cc(C)c2nc(N(Cc3cccnc3)C(=O)Cc3ccccc3)sc2c1	inconclusive: 29.1 µM [inhibitor, single point]	
O=[N+]([O-])c1ccc(C(O)C(CO)NC(=S)Nc2ccccc2)cc1 (stereo unspecified)	active: 16.4 µM	
c1cncc(-c2nc(NCc3ccc4c(c3)OCO4)c3ccccc3n2)c1	inconclusive: 23.1 µM [inhibitor, single point]	
COc1cccc(SCC2(O)CCN(C(=O)c3ccc(Cl)cc3)CC2)c1	inconclusive: 18.4 µM [inhibitor, single point]	
COc1ccc2c(c1)sc1nc(-c3ccccc3)cn12	active: 0.517 µM	
COc1cc(/C=C/C(=O)OCC(=O)NC(=O)NC(C)(C)C)ccc1OCC#N		inactive: 21.2%
S=C(NCCCN1CCOCC1)NN=C1c2ccccc2-c2ccccc21	active: 5.8 µM	
O=C(NCCN1C(=O)S/C(=C\c2ccccc2F)C1=O)C1CC(=O)N(Cc2ccccc2)C1 (stereo unspecified)	inconclusive: 29.1 µM [inhibitor, single point]	
c1cnc2ccc3c(c2c1)COCO3		inactive: -22.3%
Cc1ccc(C)c(OCC(=O)Nc2ccccc2N2CCCC2)c1	inconclusive: 14.6 µM [inhibitor, partial curve]	
CCC/C=C(\CCC)C(NC(=O)c1ccc(C(=O)OC)cc1)c1ccc(C(=O)OC)cc1 (stereo unspecified)	active: 9.2 µM	

SMILES	Potency	activity change, negative = growth inhibition
Cc1ccccc1OCc1nc2ccccc2c(=O)n1/N=C/c1cn[nH]c1-c1ccc(Br)cc1	inconclusive: 23.1 µM [inhibitor, single point]	
Cc1cccc(NC(=O)c2cc(-c3ccccn3)nc3ccccc23)c1C	active: 23.1 µM	
COc1ccc(CCNC(=O)c2cc(=O)c3ccc(C)cc3o2)cc1OC	inconclusive: 23.1 µM [inhibitor, single point] and inconclusive: 29.1 µM [inhibitor, single point]	
Cc1cc(OCCCN2CCC(C(O)(c3ccccc3)c3ccccc3)CC2)ccc1Br	active: 5.8 µM	
CCCS(=O)(=O)NC(=O)C1(C)CCN(C(=O)c2cccc(OC(F)(F)F)c2)C1 (stereo unspecified)		inactive: 18.8%
C[C@H](CO)N1C[C@H](C)[C@@H](CN(C)C(=O)Nc2ccc3c(c2)OCO3)Oc2c(NC(=O)Nc3ccc(C(F)(F)F)cc3)cccc2C1=O	active: 13 µM	
Cc1ccc(N(C)S(=O)(=O)c2ccc3c(c2)CC(C)N3C(=O)C2CC2)cc1 (stereo unspecified)	inconclusive: 16.4 µM [inhibitor, single point]	
CCc1c(C)sc2nc(SCC(=O)Nc3cc(C)on3)n(CCOC)c(=O)c12	inconclusive: 1.64 µM [inhibitor, full curve]	
Clc1cccc(Cl)c1CSc1nnc2ccccn12	inconclusive: 14.6 µM [inhibitor, single point]	
CCOC(=O)C1CCCN(C(=O)c2ccc3nc(-c4ccc(OC)c(OC)c4)c(-c4ccc(OC)c(OC)c4)nc3c2)C1 (stereo unspecified)	active: 29.1 µM	
CCCCNc1c(C(=O)OCC)c(C)nc2c1cnn2CC	active: 8.41 µM and active: 13 µM	
COc1cc(/C=N/NC(=O)c2cccnc2)ccc1OCC(=O)Nc1ccc(C)cc1		inactive: 18.8%
O=c1nc2sc3ccccc3n2c(=O)n1-c1ccc(Cl)cc1	inconclusive: 25.9 µM [inhibitor, single point]	
Nc1c(N=Nc2ccc(-c3ccc(N=Nc4cc(S(=O)(=O)O)c5ccccc5c4N)cc3)cc2)cc(S(=O)(=O)O)c2ccccc12	inconclusive: 10.6 µM [inhibitor, partial curve, poor fit]	
O=[N+]([O-])c1ccc(C2=NN(c3ccccc3)C(c3ccco3)C2)cc1 (stereo unspecified)		inactive: -27.1%
O=C(/C=C/c1cccc([N+](=O)[O-])c1)N1CCN(c2ccccn2)CC1		inactive: -6.07%
CC1CCN(c2ccc(S(=O)(=O)N3CCC(C)CC3)cc2N)CC1	active: 20.6 µM	
CC(OC(=O)c1cccc(S(=O)(=O)Nc2ccccc2F)c1)C(=O)NCc1ccc2c(c1)OCO2 (stereo unspecified)	inconclusive: 16.4 µM [inhibitor, single point]	
COCCn1c(=O)[nH]c2cc(C(=O)Nc3ccc(OC)cc3)ccc2c1=O		inactive: -19.5%
COc1ccc(NC(=O)Nc2ccc(F)cc2)cn1	active: 16.4 µM	
Cc1ccc(C(=O)N2CCN(S(=O)(=O)c3ccc(C)cc3)CC2)cc1		inactive: -29%
COC(=O)c1ccc2c(=O)n(CCN3CCOCC3)c(SCC(=O)Nc3ccc(C)cc3)nc2c1		inactive: -21%
CN(c1ccccc1)c1ccc(/C=C/[N+](=O)[O-])cc1	active: 23.1 µM	
